Kd, koff and kon data for one molecule are collected here from patent US20140248666A1 (Amgen, published 2014).

For this assay, the target named is T1, human sclerostin, mature form (signal peptide removed) (human, UniProt Q9BQB4 24-213).
T1 construct: 190 amino acid glycoprotein with four disulfide bonds (C1-C5, C2-C6, C3-C7, C4-C8); also called SOST; recombinant human sclerostin
T1 sequence: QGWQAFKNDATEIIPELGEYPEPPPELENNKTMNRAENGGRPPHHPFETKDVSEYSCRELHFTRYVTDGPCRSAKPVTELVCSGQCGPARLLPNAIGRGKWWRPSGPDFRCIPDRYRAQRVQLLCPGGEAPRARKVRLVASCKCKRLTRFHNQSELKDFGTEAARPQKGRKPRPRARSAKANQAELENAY
Description: Biacore 3000; antibody captured by anti-human IgG Fc, sclerostin as analyte. The protocol:
The assay format was capture of the anti-sclerostin antibody by immobilised anti-human IgG-Fc then titration of the sclerostin over the captured surface. An example of the procedure is given below: BIA (Biamolecular Interaction Analysis) was performed using a BIAcore 3000 (BIAcore AB). Affinipure F(ab′)₂ Fragment goat anti-human IgG, Fc fragment specific (Jackson
ImmunoResearch) was immobilised on a CM5 Sensor Chip via amine coupling chemistry to a capture level of ≈4000 response units (RUs). HBS-EP buffer (10 mM HEPES pH 7.4, 0.15 M NaCl, 3 mM EDTA, 0.005% Surfactant P20, BIAcore AB) containing 1 mg/mL CM-Dextran was used as the running buffer with a flow rate of 10 μl/min. A 10 μl injection of the anti-sclerostin antibody at ˜5 μg/mL was used for capture by the immobilised anti-human IgG-Fc. Antibody capture levels were typically 100-200 RU. Sclerostin was titrated over the captured anti-sclerostin antibody at various concentrations at a flow rate of 30 μL/min. The surface was regenerated by two 10 μL injections of 40 mM HCl, followed by a 5 μL injection of 5 mM NaOH at a flowrate of 10 μL/min.
Background subtraction binding curves were analysed using the BIAevaluation software (version 3.2) following standard procedures. Kinetic parameters were determined from the fitting algorithm.
Background: In SPR one partner is held on a chip, and binding of the other changes the refractive index at the surface.

B1: Antibody 20 (antibody, human IgG4 S228P, kappa)
light: DIQMTQSPSSLSASVGDRVTITCRASQDISSYLNWYQQKPGKAPKLLIYSTSRLNSGVPSRFSGSGSGTDFTLTISSLQPEDFATYYCQQDIKHPTFGQGTKVEIKRTVAAPSVFIFPPSDEQLKSGTASVVCLLNNFYPREAKVQWKVDNALQSGNSQESVTEQDSKDSTYSLSSTLTLSKADYEKHKVYACEVTHQGLSSPVTKSFNRGEC
heavy: EVQLVQSGAEVKKPGSSVKVSCKASGFTFTDYIMHWVRQAPGQGLEWMGYINPYNDDTEYNEKFKGRVTITADKSTSTAYMELSSLRSEDTAVYYCARSIYYYDAPFAYWGQGTLVTVSSASTKGPSVFPLAPCSRSTSESTAALGCLVKDYFPEPVTVSWNSGALTSGVHTFPAVLQSSGLYSLSSVVTVPSSSLGTKTYTCNVDHKPSNTKVDKRV[human IgG4 Fc with S228P (EU numbers) omitted]
notes: Humanized Ab-19, IgG4 version; also called Ab-20; Ab20
Take B1: the affinity, expressed as Kd, was 0.0158 nM; the dissociation rate constant (koff) (in general, the first-order rate constant of dissociation) was determined as 4.16e-05 s⁻¹; the kon (commonly a measure of how fast the partners come together) amounted to 2.62e+06 M⁻¹ s⁻¹.
